± gives the standard deviation of the averaged measurements. Some of the results follow.
These sequences were tested on PfAP2-G AP2 domain (GST-tagged) (assay: gcPBM binding intensity (ln(normalized median fluorescence intensity)); higher = stronger DNA binding).
Procedure, shortened: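 Binding intensity values are the highest Masliner-normalised natural-log median intensity among replicate spots of either probe orientation. The binding step lasted 1 h in 1× PBS with 1% milk, 0.2 mg/ml BSA, 0.5% salmon testes DNA and 0.03% Triton X-100, using GST-tagged P. falciparum DNA-binding domains expressed in E. coli on an Agilent 4 × 180k array of primer-extended double-stranded 36-bp intergenic genomic probes plus negative controls. Alexa488 anti-GST antibody and a 488 nm scan detected bound protein.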

Sequence | gcPBM binding intensity (ln)
TATTTGTTGTGAGTCACACATATATATATATATATA [CACACA_site4240] | 10.4 ± 0.57
ATATTGTAAGTAAACACACACACATATATATGTATA [CACACA_site8124] | 9.955 ± 0.035
AAAATATCTTATATATGTACATATTTATATTTATAT [XGTACX_site6027] | 11.1 ± 0.64
TTTTCATAAAATCATTGTACATTTATCGTATATTAA [XGTACX_site3855] | 10.8 ± 0.58
TATAAACACCCATATAAACACACATATAAACCAACA [CACACA_site8790] | 10.2 ± 0.23
ATACGCACACATATATGTACATATTGTATATATATA [XGTACX_site3962] | 11.2 ± 0.71
GACAAAAAATTAAAATAAAATAATAATATAATAAAA [GTGCAC_negctrl_site234] | 9.49 ± 0.11
ATATAATAGTTATATTGTACATAAATTATACACCTT [XGTACX_site628] | 11 ± 0.5
AAGGTAGAAATATGTTGTACGGTTTGGAGGAAGCAA [XGTACX_site1105] | 10.7 ± 0.5
GCATCGATCAAACATACACACATGGTTAATAAAAAT [CACACA_site8651] | 10.3 ± 0.29
TGTTTTATTTTATTAGTGCATTTTTATTTATAATAG [GTGCAC_site9453] | 9.97 ± 0.13
ACATATATATTCATATGTACATATACATACATACAT [XGTACX_site4563] | 11.3 ± 0.64
ACAATTTACACTTAAACACACAAAAAAAAATTATAT [CACACA_site2065] | 10.06 ± 0.057
TTATAAATGTAACGATGTACTTTTAAAAGTTTCCTT [XGTACX_site109] | 11.2 ± 0.72
AATATATGTATATATTTTTTTTTTTCCCTTACAAAT [GTGCAC_negctrl_site428] | 9.725 ± 0.049
GTTAAAATTGGGGACGCATGTTCCTTTCCTTTTTTT [TGCATGCA_site1002] | 10.8 ± 0.57
TATATTAAACAATATACACACATTAATGTATACATA [CACACA_site2755] | 10.02 ± 0.028
GGAATGGTACATGATACACACACGCACATATATATA [CACACA_site5825] | 10.8 ± 0.57
GATTTAATAGATACGAGTACAGAAATTGTATACATA [XGTACX_site7563] | 11.6 ± 0.7
ATATATATATATATATATATATATATATATAAGTGG [XGTACX_negctrl_site90] | 10.3 ± 0.56
TATTAATTCATTTTTTTTTTTTTTTTTTTTTTTTTT [CACACA_negctrl_site1215] | 11 ± 0.69
TATTTTTTTTTTCACTGTACATACAACAACAAATAT [XGTACX_site8835] | 11.3 ± 0.83

Sequence | gcPBM binding intensity (ln)
CCCTTAATTTAAAACACACAAACAAATAAGTTAGTT [CACACA_site3793] | 9.91 ± 0.085
AATATATTTATTATAACACACACATATATATATTAT [CACACA_site8264] | 9.9 ± 0.11
TACATATTTTTCTTTTCACACATGGAAAAAAAAGGT [CACACA_site5146] | 10.1 ± 0.23
TTATATGTTTTGTGTACACAATTTATTAAATTAATA [CACACA_site5645] | 11.7 ± 0.88
ATAGGAAAAAGTATTGGTACACATACATATACGTTA [XGTACX_site5819] | 11.2 ± 0.72
ATAAAATACCCTGATCTATTACATATTATATTCTGC [GTGCAC_negctrl_site311] | 9.89 ± 0.014
TATATATTTTTTTCATGTACATATAAATTAATTAAA [XGTACX_site8680] | 11.4 ± 0.73
ACACAAAAAATTAAGTGTACTCATCAAGAAAAAAAA [XGTACX_site3456] | 11.5 ± 0.82
TAATTACACTTTAAAAGTACATATATAATAACATTA [XGTACX_site379] | 11.4 ± 1.1
CAAACAATTAAACAAACACACATATACATGTATATA [CACACA_site2060] | 9.79 ± 0.13
AAAATAAGCCATATACGTACATACATATATAAATAT [XGTACX_site4197] | 11.4 ± 0.95
TTTTTTATGTTCAATTGTACATATACATATATATAT [XGTACX_site6013] | 11.2 ± 0.48
TTCATATTTCATATATGTACTTATGTTCAATATAGT [XGTACX_site3811] | 11.1 ± 0.79
CACATAAAAAAATAAACACACATATGTATATAAATA [CACACA_site7483] | 10.23 ± 0.057
CTTTAAATGATGTAAACACACACATATACATTATTA [CACACA_site9035] | 9.99 ± 0.099
AATATGAAACAAGACGCACACATAAATAAATAAATA [CACACA_site326] | 10.3 ± 0.38
AGTGCTACTCATGATTGAATAGAGGAAAAGGCGGTG [GTGCAC_negctrl_site49] | 9.88 ± 0.17
TAAAAAAAAATAAAAAGTACATATATATATATATAT [XGTACX_site1155] | 11.1 ± 0.86
AATGGAAAAATAGGCACACACACATAAATACAGATA [CACACA_site4844] | 10.3 ± 0.18
TTTTTTTTTTTTTTTGCACACTATATTTAATATAAG [CACACA_site2444] | 9.88 ± 0.52
CTTTTTTGGTACATCACACATTTTTACATTCCCTTT [CACACA_site4957] | 11.2 ± 0.7
TTGAAAAATCAGCACACACACAAATACATACATATT [CACACA_site7505] | 10.13 ± 0.014
